# Hit rate of the full screen: of about 420,000 compounds, about 50,000 (12%) were called active. The shares of active, inactive and inconclusive entries below differ from those in the screen. The call rests on the fitted dose curve; in most records, active means well fitted inhibition curve with a large enough effect; inconclusive means small, poorly fitted or top-dose-only effect; inactive means flat fitted curve, though single readings scatter. Potencies of inconclusive entries are left out as doubtful fits.
# Test: qHTS for Inhibitors of human tyrosyl-DNA phosphodiesterase 1 (TDP1): qHTS in cells in presence of CPT; further: nearly all actives have a fitted effect of over 55% in size
# Settings: chicken DT40 Tdp1-/-;hTDP1 cells + 20 nM CPT, ATP luminescence, 48 h; activity change, negative = growth inhibition: at 46.2 µM (top of the series) unless noted
# How it was run: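 Chicken DT40 Tdp1-/- cells stably complemented with human TDP1 were seeded at 400 cells/well in medium containing 20 nM camptothecin, exposed to pin-transferred compounds, and grown at 37 °C for at least 48 hr. Viability was read as ATP luminescence.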
# On the % scale 0 is the no-effect control and ±100 the full control effect; potency means the concentration at half of the fitted maximal effect; tags describe the fitted curve by direction and shape.
Compound,Potency,"activity change, negative = growth inhibition"
COc1ccc(OCc2cc(C(=O)NC3CCc4ccccc43)no2)c(Cl)c1 (stereo unspecified),"inconclusive [inhibitor, single point]",–
COCCNC(=O)CSc1nc2scc(-c3ccccc3)c2c(=O)[nH]1,–,inactive: -1.08%
COc1ccccc1C(=O)c1nc2ccccc2n1C,–,inactive: -16.2%
COc1ccc(S(=O)(=O)Nc2c(C)n(C)n(-c3ccccc3)c2=O)c(Cl)c1Cl,–,inactive: -7.15%
Cc1cc2c(Nc3ccc(C(=O)O)cc3)ncnc2s1,–,inactive: 17.8%
Cc1nc2ccc(Br)cc2c2c1CC(CBr)O2 (stereo unspecified),–,inactive: 16.6%
O=C(Cn1nc(Cl)nc1Cl)c1ccccc1,"inconclusive [inhibitor, single point]",–
COc1cccc(OC)c1C(=O)OCC(=O)N(c1ccccc1)C1CCCCC1,active: 14.6 µM,–
CCOC(=O)c1cc(-c2ccc(C)cc2)n(CC(=O)Nc2ccc(OC)c(Cl)c2)c1C,active: 18.4 µM,–
COC(=O)c1ccc2c(=O)[nH]c(COC(=O)c3c(-c4ccccc4)noc3C)nc2c1,–,inconclusive: -32.8% [inhibitor]
CCOC(=O)C1(Cc2ccccc2C(F)(F)F)CCN(Cc2ccc(COC)o2)CC1,active: 9.2 µM,–
CCN(CCNCC(O)COc1ccccc1C(C)C)c1cccc(C)c1 (stereo unspecified),"inconclusive [inhibitor, single point]",–
CC(C)n1cnnc1SCC(=O)NC(=O)c1ccccc1,–,inconclusive: -25.9% [inhibitor]
COc1ccccc1N1CCN(S(=O)(=O)c2cc(-c3cc(C)no3)ccc2C)CC1,active: 20.6 µM,–
O=C(Nc1ccc2c(c1)OCO2)N1CCN(c2ccc(F)cc2)CC1,–,inconclusive: -30.6% [inhibitor]
COc1ccc2c(=O)c3c(=O)n(Cc4ccco4)c(C(C)C)nc3oc2c1,–,inactive: 2.66%
O=C(Nc1cccc(C(F)(F)F)c1)c1ccc(N2CCNCC2)c([N+](=O)[O-])c1,active: 14.6 µM,–
O=C(c1c(F)c(F)c(F)c(F)c1F)N1CCc2ccccc21,"inconclusive [inhibitor, single point]",–
CCOc1ccccc1NC(=O)CCNC(=O)c1ccco1,–,inactive: 5.01%
COc1cc(OC)cc(-c2c(-c3cccs3)c3cc(Br)ccc3n2C)c1,–,inactive: 6.47%
COc1ccc(CNc2nc(C)c([N+](=O)[O-])c(C)c2C#N)cc1,active: 18.4 µM,–
O=C(NC1CC1)c1cc(=S)[nH]c2ccccc12,–,inactive: -15.9%
Cc1noc(C)c1C(=O)OCC(=O)NC(c1ccccc1)c1ccccc1,–,inconclusive: -30.8% [inhibitor]
CCOC(=O)c1nnn2c1nc(N1CCCCC1)c1ccccc12,"inconclusive [inhibitor, single point]",–
CCc1c(O)cc(=O)n(-c2ccccc2)c1-c1ccccc1,–,inactive: -3.77%
CC(C)(C)c1ccc(OCCC(=O)OCC(=O)Nc2ccc(N3CCOCC3)cc2)cc1,"inconclusive [inhibitor, partial curve, poor fit]",–

Compound,Potency,"activity change, negative = growth inhibition"
CC1SC(c2ccccc2)N(CC(O)c2ccc([N+](=O)[O-])cc2)C1=O (stereo unspecified),"inconclusive [inhibitor, single point]",–
CCC(C)NC(=O)c1ccccc1NC(=O)C1CCN(S(=O)(=O)Cc2ccccc2)CC1 (stereo unspecified),"inconclusive [inhibitor, single point]",–
CCOC(=O)c1sc2ncn(/N=C/c3ccc(O)c(OC)c3)c(=O)c2c1C,–,inactive: -18%
CC(=O)Nc1ccc(S(=O)(=O)NCCSCc2ccccc2Cl)cc1,active: 9.2 µM,–
COc1ccc(NC(=O)CNc2cc(S(=O)(=O)N3CCOCC3)ccc2NCC2CCCO2)cc1 (stereo unspecified),"inconclusive [inhibitor, partial curve]",–
Oc1cccc(/C=N/N2CCN(C3c4ccccc4-c4ccccc43)CC2)c1,"inconclusive [inhibitor, single point]",–
CC(C)NC(=O)C1C(c2ccc(C(F)(F)F)cc2)=Nc2ccccc2N1C(=O)c1ccccc1 (stereo unspecified),"inconclusive [inhibitor, single point]",–
O=C(Cc1coc2cc(O)ccc12)NNC(=O)c1cccs1,–,inactive: -2.69%
COc1ccc(C2(C(=O)NCCN3CCOCC3)CCOCC2)cc1,"inconclusive [inhibitor, single point]",–
CCc1nc(Nc2cccc(O)c2)c2oc3ccccc3c2n1,"inconclusive [inhibitor, partial curve, poor fit]",–
COc1ccc(C2N(C(=O)c3ccccc3)CCN2C(=O)c2ccccc2)cc1,–,inactive: -3.86%
Cc1coc2c1c(C)cc1oc(=O)c(CC(=O)NCc3ccc(Cl)cc3)c(C)c12,–,inactive: 2.31%
Cc1cc(C)c(C(=O)NCC(=O)c2ccccc2)c(C)c1,–,inactive: -25.5%
Cc1ccc2nc(-c3c[nH]c4ccccc34)c(Nc3ccccc3)n2c1,active: 16.4 µM,–
CCn1nnnc1NCc1cccc(Cl)c1,–,inactive: -15.4%
C=C[C@@H]1c2ccccc2N(S(=O)(=O)c2ccc(C)cc2)[C@H](c2ccccc2)C1(C#N)C#N,active: 7.94 µM,–
O=C(NC1CCCC1)C(c1ccccc1)N(Cc1ccco1)C(=O)Cc1cccs1 (stereo unspecified),"inconclusive [inhibitor, single point]",–
COc1cccc(CCNC(=O)CCc2nnc(-c3cc(C)oc3C)o2)c1,–,inactive: -20.3%
COC(=O)c1ccc(NS(=O)(=O)c2cc3c4c(c2)CCC(=O)N4CCC3)cc1,"inconclusive [inhibitor, single point]",–
COc1cccc(CNC(=O)c2ccc(NS(=O)(=O)c3ccc4[nH]c(=O)[nH]c4c3)cc2)c1,–,inactive: 16.7%
Cc1cc(C)nc(SCC(=O)N/N=C/c2cccc([N+](=O)[O-])c2)n1,active: 18.4 µM,–
COC(=O)[C@H]1C[C@H](OC(=O)NCc2ccco2)[C@@]2(O)CN(S(=O)(=O)c3ccc(C)cc3)CC2[C@H]1C(=O)OC (stereo partly specified),"inconclusive [inhibitor, single point]",–
Cc1noc(Cn2c(=O)c3ccccc3n(CC(=O)Nc3cccc(Cl)c3C)c2=O)n1,"inconclusive [inhibitor, single point]",–
COc1cc(SC#N)ccc1N=Cc1c(C)[nH]n(-c2cccc3ccccc23)c1=O,active: 10.3 µM,–
C/C(=N\NC(=O)C1COc2ccccc2O1)c1ccccn1 (stereo unspecified),active: 5.8 µM,–
COc1ccc(-c2nnc(SCC(=O)Nc3sc4c(c3C#N)CCC4)n2CC2CCCO2)cc1 (stereo unspecified),"inconclusive [inhibitor, single point]",–

Compound,Potency,"activity change, negative = growth inhibition"
CCCCCC(O)(CCN1CCCCC1)c1ccc(OCC)cc1 (stereo unspecified),"inconclusive [inhibitor, single point]",–
O=C(Nc1ccc2c(c1)OCCO2)C(=O)c1c[nH]c2ccccc12,active: 10.3 µM,–
CC(=O)Nc1ccc(C(=O)Nc2ccc(S(=O)(=O)N3CCCC3)cc2)cc1,–,inactive: -23.9%
O=C(CCSc1ccc(Cl)cc1)NC1CCCC1,–,inactive: -2.3%
COc1ccc([N+](=O)[O-])cc1N/C(=N/S(=O)(=O)c1ccccc1)c1ccccc1,–,inactive: 9.77%
COc1cc(CN2CCN(CCc3ccccc3)C(CCO)C2)cc(OC)c1 (stereo unspecified),–,inactive: -0.227%
CC[N+]1(CC)CCC(=C(c2ccccc2)c2ccccc2)C1C (stereo unspecified),active: 5.31 µM,–
COc1ccc(C(C(=O)NC2CCCC2)N(C(=O)c2snc(-c3ccc(F)cc3)c2N)c2ccc(OC)cc2)cc1 (stereo unspecified),active: 8.2 µM,–
NC(=S)NN=Cc1ccc(OC(=O)COc2cc(Cl)c(Cl)cc2Cl)cn1,active: 6.51 µM,–
CCOC(=O)[C@@H]1[C@H]2COc3ccccc3[C@H]2N2C(=O)N(c3ccc(Cl)cc3)C(=O)[C@]12C,"inconclusive [inhibitor, single point]",–
Cc1cccc(OCCSc2nc3ncnc(N)c3[nH]2)c1,"inconclusive [inhibitor, single point]",–
COc1ccc(N2CCN(C(=O)c3oc4ccccc4c3NC(=O)Cc3cccc(OC)c3)CC2)cc1,"inconclusive [inhibitor, single point]",–
CCC(C(=O)NCC1CCCO1)n1nc(C)c2sc3ccccc3c2c1=O (stereo unspecified),"inconclusive [inhibitor, single point]",–
O=C(c1ccco1)N1CCN(c2ccc([N+](=O)[O-])c(N3CCOCC3)c2)CC1,–,inactive: -2.67%
CC(=O)N1CCCc2cc(S(=O)(=O)N(C)CC(=O)Nc3ccc(C)cc3C)ccc21,"inconclusive [inhibitor, single point]",–
O=S(=O)(c1ccccc1)c1nc(Nc2cccc(O)c2)sc1Cl,"inconclusive [inhibitor, single point]",–
CSC(=NC#N)N1CCN(c2ccc([N+](=O)[O-])cc2)CC1,"inconclusive [inhibitor, single point]",–
CC(=O)N1CCC2(CCN(Cc3ccc(C#N)cc3)CC2)CC1,–,inactive: 5.03%
CC(=O)N1CCCc2cc(S(=O)(=O)N3CCN(c4ccccn4)CC3)ccc21,"inconclusive [inhibitor, single point]",–
O=C(Nc1cccn(Cc2ccccc2Cl)c1=O)NC1CCCCC1,"inconclusive [inhibitor, single point]",–
Cc1nn(CC(=O)NC2CCCCC2)c(C)c1[N+](=O)[O-],–,inactive: 3.33%
Cc1cccc(N2CCN(C(=O)n3ccnc3)CC2)c1C,"inconclusive [inhibitor, single point]",–
CCN1CCN(c2ccc(N3CCN(S(=O)(=O)c4cccc([N+](=O)[O-])c4)CC3)nn2)CC1,"inconclusive [inhibitor, single point]",–
COC(=O)c1c(NC(=O)CSc2ccccc2N)sc(C)c1C,"inconclusive [inhibitor, single point]",–

# Reference: PubChem BioAssay AID686979 (National Center for Advancing Translational Sciences (NCATS), 2013)
